Assay results taken from the supplement of paper PMC10126150.
Values marked as one replicate rest on one cluster of the flow cell; about a third of the high ones do not repeat.

test system: ATP; test: switch fluorescence ratio, 500 uM ATP over buffer (Cy3 cluster intensity, sum of 5 cycles each) (fold (ratio)); higher = stronger signal-on switching upon ATP binding; sequences stand for … in TCGTCGGCAGCGTCAGATGTGTATAAGAGACAGTTTTTTTTTTTTTTTTTTTTTTTTT…TC; details: aptamer strand: ATP DNA aptamer (quencher-CACCTGGGGGAGTATTGCGGAGGAAGG + anchor), 100 nM annealed; ATP concentration: 500 uM; one replicate
Procedure, shortened: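 Imaging in selection buffer was followed by imaging after 15 min with 500 uM ATP at 22 °C, for Cy3-labelled switching-strand clusters annealed to 100 nM quencher-labelled ATP aptamer on a modified Illumina MiSeq flow-cell. Five of these buffer/ATP cycles ran, separated by NaOH stripping and re-annealing. The fluorescence ratio per cluster is summed target-cycle over summed buffer-cycle Cy3 intensity, averaged per switch-domain sequence; clusters outside 100-1000 RFU were removed.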
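Further: ATP exposure 15 min at 22 °C before imaging.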

Question: How did the switch fluorescence ratio turn out when CAGTGTGAG was run?
Answer: 0.992

Question: How did the switch fluorescence ratio turn out when CAGTGTTCGA was run?
Answer: 1

Question: Which switch fluorescence ratio does the source give for CAGTTACGCG here?
Answer: 1.02

Question: How did the switch fluorescence ratio turn out when CAGTTATCTT was run?
Answer: 0.969

Question: For CAGTTCACGA, which switch fluorescence ratio is on record?
Answer: 0.958

Question: For CAGTTCTCTG, which switch fluorescence ratio is on record?
Answer: 0.981

Question: With CAGTTGACCC as the sequence, how does the switch fluorescence ratio read?
Answer: 1.03

Question: CAGTTGATTG was tested. Which switch fluorescence ratio did it give?
Answer: 1.02

Question: For CAGTTGTAGT, which switch fluorescence ratio is on record?
Answer: 1.02

Question: CAGTTTAAAT was tested. Which switch fluorescence ratio did it give?
Answer: 0.964

Question: For CAGTTTAGG, which switch fluorescence ratio is on record?
Answer: 1

Question: Which switch fluorescence ratio does the source give for CAGTTTCCAA here?
Answer: 1

Question: Which switch fluorescence ratio does the source give for CAGTTTCTTA here?
Answer: 1.08

Question: Which switch fluorescence ratio does the source give for CAGTTTTATG here?
Answer: 1.02

Question: How did the switch fluorescence ratio turn out when CATAACGTTG was run?
Answer: 1.01

Question: CATAAGACAC was tested. Which switch fluorescence ratio did it give?
Answer: 1.06

Question: How did the switch fluorescence ratio turn out when CATAAGCCGC was run?
Answer: 1.08

Question: Which switch fluorescence ratio does the source give for CATAAGGGCA here?
Answer: 0.999

Question: Which switch fluorescence ratio does the source give for CATAAGTAAG here?
Answer: 1.04

Question: How did the switch fluorescence ratio turn out when CATAATCTTG was run?
Answer: 1.01

Question: With CATAATGGC as the sequence, how does the switch fluorescence ratio read?
Answer: 0.983

Question: Which switch fluorescence ratio does the source give for CATACCTTGC here?
Answer: 2.7

Question: CATAGATGCT was tested. Which switch fluorescence ratio did it give?
Answer: 1

Question: How did the switch fluorescence ratio turn out when CATAGCCCAC was run?
Answer: 1.18

Question: CATAGGGGC was tested. Which switch fluorescence ratio did it give?
Answer: 1.01

Question: For CATAGGTTAG, which switch fluorescence ratio is on record?
Answer: 0.979

Question: For CATAGTATTT, which switch fluorescence ratio is on record?
Answer: 1.02

Question: CATAGTTGG was tested. Which switch fluorescence ratio did it give?
Answer: 0.934

Question: For CATATCAAGT, which switch fluorescence ratio is on record?
Answer: 0.958

Question: How did the switch fluorescence ratio turn out when CATATGGGC was run?
Answer: 0.99

Question: How did the switch fluorescence ratio turn out when CATATGTTAC was run?
Answer: 1.09

Question: How did the switch fluorescence ratio turn out when CATATTCT was run?
Answer: 0.994

Question: How did the switch fluorescence ratio turn out when CATCAGAAAA was run?
Answer: 1.61

Question: With CATCAGACTA as the sequence, how does the switch fluorescence ratio read?
Answer: 0.965

Question: CATCATCAAT was tested. Which switch fluorescence ratio did it give?
Answer: 1.55

Question: For CATCCATCGA, which switch fluorescence ratio is on record?
Answer: 1.1

Question: Which switch fluorescence ratio does the source give for CATCCCGTAA here?
Answer: 3.56

Question: For CATCCGA, which switch fluorescence ratio is on record?
Answer: 1.38

Question: For CATCCTATTG, which switch fluorescence ratio is on record?
Answer: 1

Question: CATCGAATAT was tested. Which switch fluorescence ratio did it give?
Answer: 1.05

Question: With CATCGATGAG as the sequence, how does the switch fluorescence ratio read?
Answer: 0.982

Question: For CATCGTCTAA, which switch fluorescence ratio is on record?
Answer: 0.999

Question: CATCGTCTTT was tested. Which switch fluorescence ratio did it give?
Answer: 0.961

Question: How did the switch fluorescence ratio turn out when CATCTAAGT was run?
Answer: 1.01

Question: Which switch fluorescence ratio does the source give for CATCTACAGT here?
Answer: 1.03

Question: With CATCTAGAGA as the sequence, how does the switch fluorescence ratio read?
Answer: 1

Question: For CATCTATCGG, which switch fluorescence ratio is on record?
Answer: 1.07

Question: CATCTCCTTT was tested. Which switch fluorescence ratio did it give?
Answer: 1.03

Question: Which switch fluorescence ratio does the source give for CATCTCGCTC here?
Answer: 2.24

Question: For CATCTTGGCT, which switch fluorescence ratio is on record?
Answer: 0.995

Question: How did the switch fluorescence ratio turn out when CATCTTTTCT was run?
Answer: 0.962

Question: For CATGAAATG, which switch fluorescence ratio is on record?
Answer: 0.97

Question: Which switch fluorescence ratio does the source give for CATGAAGAAT here?
Answer: 0.986

Question: Which switch fluorescence ratio does the source give for CATGAAGGTG here?
Answer: 1.46

Question: With CATGAATGG as the sequence, how does the switch fluorescence ratio read?
Answer: 1.03

Question: With CATGACAGCG as the sequence, how does the switch fluorescence ratio read?
Answer: 1.07

Question: How did the switch fluorescence ratio turn out when CATGACATAC was run?
Answer: 1.46

Question: With CATGACTTAA as the sequence, how does the switch fluorescence ratio read?
Answer: 0.983

Question: CATGAGATAT was tested. Which switch fluorescence ratio did it give?
Answer: 0.961

Question: Which switch fluorescence ratio does the source give for CATGAGCATC here?
Answer: 1.18

Question: For CATGAGGAGA, which switch fluorescence ratio is on record?
Answer: 1.05

Question: CATGAGTGCA was tested. Which switch fluorescence ratio did it give?
Answer: 1.04

Question: CATGAGTTCA was tested. Which switch fluorescence ratio did it give?
Answer: 0.97

Question: CATGAGTTCC was tested. Which switch fluorescence ratio did it give?
Answer: 0.983

Question: For CATGATAGCC, which switch fluorescence ratio is on record?
Answer: 0.933

Question: How did the switch fluorescence ratio turn out when CATGATTTTA was run?
Answer: 0.944

Question: CATGCCGCGA was tested. Which switch fluorescence ratio did it give?
Answer: 2.17

Question: For CATGCGAAGA, which switch fluorescence ratio is on record?
Answer: 0.998

Question: With CATGCGGCG as the sequence, how does the switch fluorescence ratio read?
Answer: 0.956

Question: CATGCTTGAA was tested. Which switch fluorescence ratio did it give?
Answer: 1.01

Question: With CATGGAGGGT as the sequence, how does the switch fluorescence ratio read?
Answer: 0.976

Question: How did the switch fluorescence ratio turn out when CATGGGTAAA was run?
Answer: 0.997

Question: For CATGGGTTGG, which switch fluorescence ratio is on record?
Answer: 0.941

Question: Which switch fluorescence ratio does the source give for CATGGTAAAC here?
Answer: 0.998

Question: CATGGTGCAC was tested. Which switch fluorescence ratio did it give?
Answer: 1.04

Question: CATGGTGGAC was tested. Which switch fluorescence ratio did it give?
Answer: 0.958

Question: How did the switch fluorescence ratio turn out when CATGTAATCA was run?
Answer: 0.978

Question: For CATGTACCGT, which switch fluorescence ratio is on record?
Answer: 1.06

Question: Which switch fluorescence ratio does the source give for CATGTCTGGA here?
Answer: 0.991

Question: CATGTGAAGT was tested. Which switch fluorescence ratio did it give?
Answer: 0.969

Question: For CATGTGAGGT, which switch fluorescence ratio is on record?
Answer: 0.992

Question: CATGTGATGA was tested. Which switch fluorescence ratio did it give?
Answer: 1.02

Question: For CATGTGGATG, which switch fluorescence ratio is on record?
Answer: 1.03

Question: For CATGTGTTT, which switch fluorescence ratio is on record?
Answer: 0.962

Question: With CATGTTAGTG as the sequence, how does the switch fluorescence ratio read?
Answer: 0.952
